Assay results taken from PubChem BioAssay (NCI).
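Where inhibition never reached the appropriate level, the endpoint shown equals the highest concentration tested. Otherwise, values were interpolated linearly from a five-concentration, 48-hour dose response in 96-well plates. GI50 is the concentration that inhibits growth by half. TGI denotes the concentration required for complete inhibition of growth.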

System: NCI-H322M lung
Experiment: inhibition of tumour cell growth, NCI panel, 48 h

Question: Which GI50 does the source give for `Cc1cc(C(F)(F)F)ccc1C(=O)Nc1sc2c(c1C#N)CCC(=O)C2` here?
Answer: Its GI50 is 6.1 µM.

Question: And the TGI?
Answer: The TGI was > 100 µM.

Question: Which GI50 does the source give for `Cn1cc(-c2cc(N)n3nc(-c4c[nH]c5ccc(Br)cc45)cc3n2)c2cccnc21` here?
Answer: Its GI50 is 2.12 µM.

Question: And the TGI?
Answer: The TGI was 6.97 µM.
